The results in this text go back to publication PMC4993004.

Chains of the proteins cited; added tags and fusions are not shown.
UniProt P10085: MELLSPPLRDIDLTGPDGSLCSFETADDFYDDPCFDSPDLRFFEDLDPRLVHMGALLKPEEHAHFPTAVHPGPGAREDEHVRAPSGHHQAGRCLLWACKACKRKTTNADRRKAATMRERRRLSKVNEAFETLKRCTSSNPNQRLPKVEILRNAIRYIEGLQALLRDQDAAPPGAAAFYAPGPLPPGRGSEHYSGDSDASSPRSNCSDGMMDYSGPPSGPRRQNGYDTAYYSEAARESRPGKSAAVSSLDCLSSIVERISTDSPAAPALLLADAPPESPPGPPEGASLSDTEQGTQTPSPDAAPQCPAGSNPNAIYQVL

In assay [1] the target is T1, KMT1A (lysine methyltransferase 1A) (mouse (endogenous in C2C12)) (UniProt O54864).
T1 sequence: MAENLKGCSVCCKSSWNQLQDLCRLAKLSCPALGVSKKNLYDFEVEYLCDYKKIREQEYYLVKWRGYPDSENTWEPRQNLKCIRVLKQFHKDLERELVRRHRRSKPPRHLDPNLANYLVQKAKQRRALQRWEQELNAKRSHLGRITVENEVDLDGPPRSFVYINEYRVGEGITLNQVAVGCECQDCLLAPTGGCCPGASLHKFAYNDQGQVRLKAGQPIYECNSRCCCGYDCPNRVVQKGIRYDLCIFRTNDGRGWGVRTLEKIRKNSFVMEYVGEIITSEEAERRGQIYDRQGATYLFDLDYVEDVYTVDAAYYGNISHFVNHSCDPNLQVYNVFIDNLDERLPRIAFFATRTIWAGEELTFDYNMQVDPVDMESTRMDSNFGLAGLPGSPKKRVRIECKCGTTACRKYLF
Kind of assay: condition: only cells in DM without SB (p38α active); co-IP; anti-KMT1A immunoprecipitates from extracts of C2C12 cells in DM without SB (also cells with empty vector in DM); western blot for MyoD. In general terms: A western blot detects proteins with antibodies after separation by electrophoresis.

In assay [2] the target is T1, KMT1A (lysine methyltransferase 1A) (mouse (endogenous in C2C12)). The assay can be described thus: co-IP; anti-KMT1A immunoprecipitates from extracts of C2C12 cells grown in GM, or in DM with SB203580 (also cells with empty vector in GM); western blot for MyoD; control IgG.
Assay [3] shares this target. The assay can be described thus: condition: only cells overexpressing MKK6EE (p38α activated), in GM; co-IP; anti-KMT1A immunoprecipitates from extracts of C2C12 cells overexpressing HA-MKK6EE (lentiviral), grown in GM; western blot for MyoD.

These are yes or no findings as the source states them, for the method shown. Binding seen in cells or lysates may run through a third protein. Some results given as binding are weak or reduced against the parent protein; the word gives no strength.

With MyoD (from UniProt P10085 1-318), the binding entry in assay [1] is listed as “no binding”; in assay [2] it was “binds”; in assay [3] it was “no binding”.
